# Laboratory results taken from ChEMBL document CHEMBL4888484, “Replenishing the malaria drug discovery pipeline: Screening and hit evaluation of the MMV Hit Generation Library 1 (HGL1) against asexual blood stage Plasmodium falciparum ,using a nano luciferase reporter read-out” (2022).
# Out of some 150,000 compounds screened, about 540 (0.36%) showed an effect of 50% or more. Some of the results follow.
# System: Plasmodium falciparum
# Experiment: Primary screen in NF54 nanoGlo assay, in single point, at 2uM, 72h; a lower Z score goes with more inhibition
# Format: functional, Erythrocyte
# Conditions: timepoint 72 hour
Structure (SMILES),% Inhibition,Z score
Cc1cc(C)nc(N2C(=O)c3ccc(C(=O)O)cc3C2=O)n1,-9%,1.12
CC1CN(C(=O)NC2CC(=O)N(c3ccccc3)C2)CC(C)O1 (stereo not drawn),-2%,0.29
Oc1ccccc1-c1nc(Oc2ccc3ccccc3c2)c2ccccc2n1,-4%,0.56
O=C1NC[C@H]2O[C@H](CCOc3cc(-c4ccccc4)ccc3C(=O)N3CCN(Cc4ccc(F)cc4)C[C@@H]13)CC[C@@H]2O,-8%,1.15
CN(C1CCCCC1)[C@@H](c1ccsc1)c1sc2ncnn2c1O,2%,-0.26
COc1cccc(-c2cc(-c3c(C)nn(C)c3C)nc(N3CC[C@H](N)C3)n2)c1,-23%,2.1
COc1ccc(C(=O)N2C[C@@H](Oc3ccccc3)C[C@@H]2C(=O)N2CCOCC2)cc1,-8%,1.59
O=C(Cc1ccn[nH]1)N[C@H]1CCN(c2ccc(F)c(Cl)c2)C1,-5%,0.55
NC(=O)Cn1ccnc1[C@H]1CCCN(c2ccnc3cc(Cl)ccc23)C1,11%,-1.65
CCC(=O)N1CCC[C@H](N(CCCN2CCCC2)C(=O)C(C)C)C1,-2%,0.27
C[C@H]1CN(C)CCN1C(=O)c1ccccc1-n1cnnn1,-5%,0.52
CC(C)Cc1n[nH]c(-c2[nH]c3ccccc3c2Cl)n1,-5%,0.89
Cc1[nH]c(=O)[nH]c(=O)c1S(=O)(=O)N1CCC[C@H](C(=O)Nc2nccs2)C1,-12%,1.54
O=S(=O)(C1CCOCC1)N1CC2C3CCC(C3)C21 (stereo not drawn),-10%,1.69
Cc1[nH]nc(CCC(=O)N2CC=C[C@@H]2C(C)C)c1C,-7%,0.81
CCN1C(=O)C[C@H](N2CCN(c3ncc(Br)cn3)CC2)C1=O,9%,-0.99
CCn1nccc1C(=O)N(Cc1ccncc1)Cc1ccc(C)s1,-14%,1.54
O=C(c1ccc(F)c(O)c1)N1C[C@@H]2[C@H]3CC[C@H](CC3)[C@@H]2C1,0%,-0.05
Cc1nn(-c2ccccc2)c2nc(Cc3ccccc3)nc(N3CCN(Cc4ccc(F)cc4)CC3)c12,8%,-1.24
CCCc1nnc2sc([C@H]3CCC(=O)N(CC(C)C)C3)nn12,1%,-0.19
CC1(C)C[C@]2(CCCN(Cc3nc4c(c(=O)[nH]3)C3(CCCC3)Cc3ccccc3-4)C2)CCO1,-4%,0.62

Structure (SMILES),% Inhibition,Z score
Cn1cncc1C(=O)N1CCC[C@H]1CO,-2%,0.31
C[C@H](NS(=O)(=O)c1ccc2c(c1)OCCO2)C(=O)N1CCCC1,-20%,2.39
CC(=O)c1cc(C(=O)NCc2cccnc2N2CCOCC2)[nH]n1,6%,-1.25
CCC(=O)NCCc1csc(C2CCN(C(=O)c3cc(C)ccc3C)CC2)n1,-6%,0.67
CC(C)n1cc2cc(NC(=O)N(C)[C@@H](C)CO)ccc2n1,1%,-0.08
Nc1nnc(Cc2cccc3ccccc23)s1,-5%,0.7
COc1nccnc1CN1CC[C@H](O)C1,-3%,0.28
O=C(NCc1cc(-c2ccncc2)n(C2CCCC2)n1)[C@@H]1CC=CCC1,-16%,1.78
Cc1cc(C(=O)N2C(C)CN(C(=O)C(C)(C)C)CC2C)c2ccccc2n1 (stereo not drawn),-11%,1.66
COc1cc(NC(=O)N2CCN(C(=O)c3nsc4ccccc34)CC2)cc(OC)c1,5%,-0.93
COc1ccccc1[C@H](c1c(NC(=O)c2cccs2)sc(C)c1C)N1CCC(C)CC1,6%,-1.24
CN(C)c1ccc(-c2noc(-c3ccc(F)c(Cl)c3)n2)cc1,-5%,0.67
O=C(NC(c1ccccc1)c1ccccc1)C1CCN(S(=O)(=O)Cc2ccc(F)cc2)CC1,-3%,0.66
Cc1csc(Cn2cc(C(N)=O)nc2C2CC2)n1,-14%,1.57
Cc1noc(C)c1CNc1cc(C(C)C)on1,-14%,2.72
CNc1ccc(NC(=O)NCc2cccnc2N2CCOCC2)cn1,33%,-3.79
CCN1CCN(S(=O)(=O)CCc2scnc2C)C[C@H]1c1ncc[nH]1,-6%,1.3
C=CCn1cnc(-c2ccccc2)c1-c1ccc2onc(C)c2c1,-10%,1.27
O=c1scnn1Cc1nc(C(F)(F)F)cs1,-12%,1.37
Cc1cccc(C(=O)NCC[C@H](O)C2CCOCC2)c1,-7%,1.32
COc1ccccc1C(=O)NC[C@H]1CCN(C2CCCCCC2)C1,-2%,0.29

Structure (SMILES),% Inhibition,Z score
COC1CN(C(=O)C2CC=CC2)CCC1C (stereo not drawn),-7%,0.84
O=C(NCCn1cnc(C2CC2)cc1=O)[C@@H]1CCCO1,-3%,0.53
O=C(C[C@@H]1C=CCC1)N1CCCN(S(=O)(=O)N2CCCCC2)CC1,-4%,0.74
C[C@@H]1CN(Cc2cn(Cc3ccncc3Cl)nn2)C[C@H](C)O1,-18%,3.13
Cn1nc(CCC(=O)N2CCCCC2)c2c1CCN(Cc1cccc(Cl)c1)C2,-10%,1.34
COCCCN1C(=O)CC(CC(=O)N[C@@H](C)c2ccccc2)(c2ccccc2)C1=O (stereo partly drawn),11%,-1.59
COCCN(CCOC)C(=O)c1cc(C)on1,-5%,0.56
CC(C)CC1(CNC(=O)CC[C@H](C)N2CCN(C)CC2)CCC1,14%,-1.85
O=C(c1c2c(nc3ccccc13)CCCC2)N1CCC(c2nc(C3CCOCC3)no2)CC1,-3%,0.42
COc1ccc2nc(N3CC(C(=O)Nc4nc5ccc(S(C)(=O)=O)cc5s4)C3)sc2c1,-15%,2.41
Cc1c(CN2CCC[C@](C)(F)C2)cnn1C,-11%,1.35
O=C(O)[C@@H]1Cc2ccccc2N1S(=O)(=O)C1Cc2ccccc2C1,6%,-1.19
Cc1nc(N2CCOCC2)c2c(C(=O)Nc3cccc(C)c3C)c(C)oc2n1,-5%,0.94
Cn1nnc(CN2c3ccccc3CC2(C)C)n1,-5%,0.5
N#CCC(=O)N(CCn1ccnc1)Cc1ccccc1Br,5%,-0.87
Cc1cc(C)cc(C(=O)NC(C)(C)CC(C)(C)C)c1,1%,-0.17
CC1CCN(C(=O)CN2CCN(S(=O)(=O)c3cccc(F)c3)CC2)CC1,3%,-0.46
CC(CCc1cccn1C)NC(=O)NC1CCN(c2cnn(C)c2)C1 (stereo not drawn),-1%,0.08
CCc1n[nH]c(NC(=O)c2cncc(C)c2)c1Br,-2%,0.32
COc1ccc(S(=O)(=O)N2CC[C@H](Oc3nc(C)cc(C)n3)C2)cc1C,-15%,2.36
CN(Cc1nccs1)c1ccc(-c2nc(-c3ccccc3F)no2)cn1,-20%,1.78

Structure (SMILES),% Inhibition,Z score
Cc1cc(C)nc(-c2cccc(C(=O)NC[C@H]3CCOC3)c2)n1,-2%,0.19
Oc1cccc(Cc2nc(-c3cccs3)no2)c1,-8%,1.29
Cc1cc(NC(=O)Cn2ccc(-c3cccc(F)c3)n2)n(C)n1,-21%,3.36
O=C(NCCc1ccccc1)c1ccc2c3c(cccc13)CC2,-4%,0.64
O=C(Cn1nnc2c1CCCC2)NCc1ccc2cc[nH]c2n1,36%,-4.05
O=C(NCc1nccn1CCCc1ccccc1)NOCc1ccc(F)cc1,-34%,3.98
Cc1ccc([C@@H]2CCCCCN2S(=O)(=O)c2ccc3c(c2)CCCC3)s1,-6%,0.84
CCCN(CC(=O)N(Cc1ccc(F)cc1)C1CCN(C(=O)C(C)C)CC1)S(=O)(=O)CCC,-11%,1.16
Cn1nc(C(=O)NC2CCCC2)ccc1=O,-3%,0.43
COC(=O)c1cc(C2CC2)nc2c1c(-c1ccc(C)cc1)nn2[C@H]1CCS(=O)(=O)C1,-3%,0.66
O=C(CCN(CCc1ccccc1)c1nc(C2CC2)nc2ccccc12)Nc1ccccc1,0%,-0.06
CN1[C@@H]2CC[C@H]1CN(C(=O)c1sccc1S(N)(=O)=O)CC2,-17%,1.71
CC1CC(C(=O)Nc2cc(F)c(F)cc2N2CCOCC2)CC(C)O1 (stereo not drawn),-10%,0.88
CCc1nc(Cn2ccnc2-c2ccc3c(c2)CCN3C(C)C)no1,-7%,1.22
CC(=O)N1CCC(c2nc(C(C)C)cs2)CC1,-6%,0.97
CC(C)(C)n1cc(C(=O)NC2CCN(Cc3ccccc3)CC2)nn1,-5%,0.86
COCCCOC1CN(c2nc(C)cc(C#N)n2)C1,-4%,0.56
Cc1c(Cl)cccc1NC(=O)c1sccc1S(=O)(=O)N1CCc2ccccc2C1,1%,-0.1
Cc1noc(-c2cccnc2N2CC[C@H](N3CC=CC3)C2)n1,-6%,0.85
NC(=O)c1csc(CNc2nc3ccccc3s2)c1,-12%,1.7
Cc1cccc(N2CCN(C(=O)NCc3nc(C(C)C)no3)CC2)c1C,7%,-0.93
